Measured values from PubChem BioAssay AID504333 (National Center for Advancing Translational Sciences (NCATS), 2011).
About 16,000 (4.4%) of roughly 360,000 compounds were called active. This list was built around the results that the source calls inconclusive (neither active nor inactive); the mix of calls is not that of the screen. The call rests on the fitted dose curve; in most records, active means well fitted inhibition curve with a large enough effect; inconclusive means small, poorly fitted or top-dose-only effect; inactive means no such curve, though single readings can be large or run the other way. Where the call is inconclusive, the potency comes from a doubtful curve fit.

molecular target: Bromodomain adjacent to zinc finger domain protein 2B (Homo sapiens) (UniProt Q9UIF8); test: qHTS Assay for Inhibitors of BAZ2B; settings: AlphaScreen BAZ2B-H3K14Ac peptide displacement; series mostly up to 114 µM; further: nearly all actives have a fitted effect of over 60% in size
How it was run: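 Compounds, titrated to a top concentration of 110 uM, were incubated 30 min at room temperature with preformed BAZ2B/acetyl-K14 H3 peptide complex (50 nM each). Proximity signal was measured by AlphaScreen after 20 min with beads.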
Potency means the concentration at half of the fitted maximal effect; tags describe the fitted curve by direction and shape.

Chain of UniProt Q9UIF8 (Q9UIF8 whole entry, looked up, the tested form may be a part): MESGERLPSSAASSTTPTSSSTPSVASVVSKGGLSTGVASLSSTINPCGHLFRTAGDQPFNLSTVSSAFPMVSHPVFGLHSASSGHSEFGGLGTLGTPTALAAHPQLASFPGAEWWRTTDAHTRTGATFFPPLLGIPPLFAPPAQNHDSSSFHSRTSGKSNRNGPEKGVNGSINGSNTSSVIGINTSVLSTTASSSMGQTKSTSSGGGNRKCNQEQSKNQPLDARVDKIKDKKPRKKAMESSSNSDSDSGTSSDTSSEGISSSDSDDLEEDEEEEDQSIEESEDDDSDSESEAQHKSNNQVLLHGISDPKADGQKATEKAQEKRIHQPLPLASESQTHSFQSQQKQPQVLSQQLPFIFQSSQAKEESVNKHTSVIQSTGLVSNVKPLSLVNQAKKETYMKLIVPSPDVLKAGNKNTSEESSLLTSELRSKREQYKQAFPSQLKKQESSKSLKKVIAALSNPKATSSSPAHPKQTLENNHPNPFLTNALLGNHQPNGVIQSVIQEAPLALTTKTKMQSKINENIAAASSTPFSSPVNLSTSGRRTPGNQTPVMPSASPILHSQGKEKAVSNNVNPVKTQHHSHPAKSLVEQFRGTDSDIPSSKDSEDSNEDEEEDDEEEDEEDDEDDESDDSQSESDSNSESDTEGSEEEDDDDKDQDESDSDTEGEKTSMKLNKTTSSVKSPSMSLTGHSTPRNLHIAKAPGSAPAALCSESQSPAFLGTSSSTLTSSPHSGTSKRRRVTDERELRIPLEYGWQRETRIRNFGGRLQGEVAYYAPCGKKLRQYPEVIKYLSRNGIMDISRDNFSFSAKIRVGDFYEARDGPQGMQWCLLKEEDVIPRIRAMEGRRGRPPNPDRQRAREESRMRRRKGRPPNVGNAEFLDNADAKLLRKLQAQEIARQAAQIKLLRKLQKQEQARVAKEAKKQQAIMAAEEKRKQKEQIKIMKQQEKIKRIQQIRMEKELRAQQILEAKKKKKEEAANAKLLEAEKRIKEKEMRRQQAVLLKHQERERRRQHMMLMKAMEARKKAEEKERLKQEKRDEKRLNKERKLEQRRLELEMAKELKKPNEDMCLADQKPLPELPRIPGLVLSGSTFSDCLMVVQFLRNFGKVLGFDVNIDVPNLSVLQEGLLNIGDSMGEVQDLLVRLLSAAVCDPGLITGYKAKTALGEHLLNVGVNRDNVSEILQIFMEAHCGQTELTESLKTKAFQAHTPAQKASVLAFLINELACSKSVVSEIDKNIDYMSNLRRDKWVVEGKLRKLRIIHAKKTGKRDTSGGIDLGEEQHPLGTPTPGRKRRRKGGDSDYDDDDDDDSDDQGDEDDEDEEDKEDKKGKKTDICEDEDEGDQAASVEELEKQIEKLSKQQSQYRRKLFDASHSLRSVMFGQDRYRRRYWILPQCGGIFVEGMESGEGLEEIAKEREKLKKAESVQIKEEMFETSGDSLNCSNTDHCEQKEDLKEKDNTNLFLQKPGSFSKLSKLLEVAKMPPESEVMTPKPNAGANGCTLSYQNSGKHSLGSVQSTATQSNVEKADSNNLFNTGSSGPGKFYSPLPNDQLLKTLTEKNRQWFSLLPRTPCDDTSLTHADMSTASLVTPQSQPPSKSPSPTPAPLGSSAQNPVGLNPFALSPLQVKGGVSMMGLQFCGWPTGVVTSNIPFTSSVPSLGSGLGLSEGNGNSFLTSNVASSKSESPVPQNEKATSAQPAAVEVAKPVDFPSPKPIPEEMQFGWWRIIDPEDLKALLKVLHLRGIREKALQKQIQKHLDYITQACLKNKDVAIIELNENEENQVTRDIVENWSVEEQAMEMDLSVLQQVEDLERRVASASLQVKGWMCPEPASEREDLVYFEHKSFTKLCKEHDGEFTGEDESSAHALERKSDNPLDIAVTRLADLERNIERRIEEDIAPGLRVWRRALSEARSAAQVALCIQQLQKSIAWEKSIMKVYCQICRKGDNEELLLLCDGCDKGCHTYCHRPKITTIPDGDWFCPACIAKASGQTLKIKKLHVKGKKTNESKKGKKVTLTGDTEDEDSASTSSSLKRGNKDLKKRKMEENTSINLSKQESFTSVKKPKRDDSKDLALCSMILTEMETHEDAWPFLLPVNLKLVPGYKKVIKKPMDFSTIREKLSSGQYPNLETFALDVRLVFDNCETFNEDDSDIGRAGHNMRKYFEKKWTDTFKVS

Row | SMILES | Potency
1 | CN(C)c1ccc(NS(=O)(=O)c2cc(Cl)ccc2Cl)cc1 | active: 35.5 µM
2 | Nc1ccc2nc(SCc3ccccc3F)sc2c1 | inconclusive: 39.8 µM [inhibitor, partial curve]
3 | Cc1cc(C)[n+]2[nH]c(N)c(N=Nc3ccccc3)c2n1 | inconclusive: 50.1 µM [inhibitor, partial curve]
4 | O=C(c1noc2c1CCCC2)N1CCc2c([nH]c3ccccc23)C1c1ccccn1 (configuration not stated) | inconclusive: 25.1 µM [inhibitor, full curve]
5 | CCOC(=O)C1CCCN(Cc2ccc(OCC)cc2)C1 (configuration not stated) | inconclusive: 89.1 µM [inhibitor, single point]
6 | Cn1c(Oc2ccc(F)cc2)nc2c1c(=O)n(Cc1ccccc1Cl)c(=O)n2C | inconclusive: 22.4 µM [inhibitor, full curve]
7 | C=CCc1cccc2cc(C(=O)N3CCN(c4ccccn4)CC3)c(=O)oc12 | inactive
8 | O=C(O)/C=C/C(=O)NCCNc1ncc(C(F)(F)F)cc1Cl | inconclusive: 89.1 µM [inhibitor, single point]
9 | CC1CCN(Cc2c(C(=O)N/N=C/c3ccc(OC(C)C)cc3)nnn2-c2nonc2N)CC1 | inactive
10 | CC(C)c1ccc(Nc2c(-c3ccccc3O)nc3cnccn23)cc1 | inconclusive: 10 µM [inhibitor, full curve]
11 | c1ccc(CCNCCOc2ccccc2)cc1 | inconclusive: 79.4 µM [inhibitor, single point]
12 | O=C(Cn1cnc([N+](=O)[O-])n1)N/N=C/c1ccc(O)cc1O | active: 28.2 µM
13 | N#C/C(=C/c1ccc(Br)o1)C(N)=S | inconclusive: 50.1 µM [inhibitor, partial curve]
14 | Cc1cccc(-n2c(C)cc(/C=N/NC(=O)c3ccc(CN4CCOCC4)cc3)c2C)c1 | inconclusive: 79.4 µM [inhibitor, single point]
15 | COc1ccc(NC(=O)c2ccc(NCCN3C(=O)CCC3=O)c([N+](=O)[O-])c2)cc1 | inconclusive: 50.1 µM [inhibitor, partial curve]
16 | C/C(=N\Nc1nc2ccccc2[nH]1)c1ccc(C)o1 | active: 44.7 µM
17 | Cc1cnc(NC(=O)C2CC(=O)N(c3cccc(Cl)c3)C2)s1 (configuration not stated) | inactive
18 | CCCOC(=O)c1cccc(Nc2nc(-c3cccnc3)nc3ccccc23)c1 | inactive
19 | S=C1NC[C@H](c2ccccc2)N1CC1CCCCC1 | inconclusive: 79.4 µM [inhibitor, single point]
20 | COc1cc(OC)c(OC)cc1/C=C1\CC(C)C/C(=C\c2cc(OC)c(OC)cc2OC)C1=O (configuration not stated) | active: 11.2 µM
21 | CC1CCCC(C)N1/N=C/c1ccccc1F (configuration not stated) | active: 50.1 µM
22 | COc1ccc(-c2ccc(NS(=O)(=O)c3cccc([N+](=O)[O-])c3)cc2)nn1 | inconclusive: 79.4 µM [inhibitor, single point]
23 | COc1ccc(CNC(=O)c2ccc(SC)cc2OC)cc1 | inactive
24 | O=C(CSc1nnc(-c2cccc(S(=O)(=O)N3CCCC3)c2)n1-c1ccccc1)Nc1ccc(C(=O)O)cc1 | active: 50.1 µM

Row | SMILES | Potency
25 | O=C(Nn1cnnc1)c1cc([N+](=O)[O-])cc([N+](=O)[O-])c1 | inactive
26 | Cc1nc2c(C#N)cnn2c2c1CCN2CC1CCCO1 (configuration not stated) | inactive
27 | CN1/C(=C\C(=O)c2ccco2)c2ccccc2CC1(C)C | inconclusive: 89.1 µM [inhibitor, single point]
28 | Cc1ccc(C(=O)OCC(=O)NC2CCCCCC2)c(C)c1 | inactive
29 | O=C(NCc1ccc(N2CCCC2=O)cc1)Nc1cccc(Cl)c1 | inconclusive: 89.1 µM [inhibitor, single point]
30 | Cc1cc(C)c2c(CN3CCN(C/C=C/c4ccccc4)CC3)cc(=O)oc2c1 | inconclusive: 44.7 µM [inhibitor, partial curve]
31 | Cc1ccc2nc(C)c(Cl)c(=O)n2c1 | inconclusive: 79.4 µM [inhibitor, single point]
32 | O=C(CNCC1CCCO1)Nc1ccccc1-n1cccc1 (configuration not stated) | active: 50.1 µM
33 | Cc1cc(=O)[nH]c(SCC(=O)Nc2ccc(C(=O)O)cc2)n1 | inconclusive: 3.98 µM [inhibitor, single point]
34 | CCc1ccc(NC(=O)CSc2nc3ccccc3c(=O)n2CCCN2CCC(C)CC2)cc1 | inconclusive: 39.8 µM [inhibitor, partial curve]
35 | CCN1CCN(CC(O)COc2ccc(Cl)cc2)CC1 (configuration not stated) | inconclusive: 79.4 µM [inhibitor, single point]
36 | CC(=O)Oc1ccc2c3c(c(=O)oc2c1)CCCC3 | inactive
37 | COc1ccccc1/C=C1/C(=O)N(c2ccccc2)N=C1C | inconclusive: 44.7 µM [inhibitor, partial curve]
38 | COc1cc(C(=O)N2CCc3c([nH]c4ccccc34)C2c2ccccc2)cc(OC)c1OC (configuration not stated) | inconclusive: 25.1 µM [inhibitor, full curve]
39 | COc1ccc(OC)c(NC(=O)COc2coc(CN3CCc4ccccc43)cc2=O)c1 | inconclusive: 39.8 µM [inhibitor, partial curve]
40 | COc1ccc(OC)c(NC(=O)COC(=O)c2c3c(nc4ccccc24)CCCC3)c1 | inconclusive: 89.1 µM [inhibitor, single point]
41 | O=c1c2ccccc2nc(-c2ccco2)n1CCCn1ccnc1 | inconclusive: 79.4 µM [inhibitor, single point]
42 | Nc1nc(NC(=O)CCC(=O)O)nn1-c1ccccc1 | active: 50.1 µM
43 | N#Cc1cc(-c2ccccc2)nn1-c1ccccc1 | inconclusive: 89.1 µM [inhibitor, single point]
44 | CN1CCN(CCOc2ccc(-c3ccccc3)cc2)CC1 | inconclusive: 50.1 µM [inhibitor, partial curve, poor fit]
45 | COc1ccccc1-n1cnnc1SCC(=O)Nc1cc(C)on1 | inactive
46 | COc1ccc(NC(=O)Nc2ncn(Cc3cccc(C(F)(F)F)c3)n2)cc1OC | inconclusive: 50.1 µM [inhibitor, partial curve]
47 | Cc1ccc(NC(=S)NCc2ccccc2Cl)c(C)c1 | inconclusive: 89.1 µM [inhibitor, single point]
